Results: PubChem BioAssay (Tox21)
Values joined by “and” are separate entries in the source; they are usually repeats but may differ in a detail not shown here. Identical values can stand only once. The inconclusive results got no clear call from the source; some entries with a clear call stand among them for comparison. Potencies of inconclusive entries are doubtful fits and often do not repeat. Active and inactive are the calls of the source. Unless noted, calls follow the shape of the dose curve; as a rule, active = well fitted curve in the direction sought with a large enough effect in the repeat runs; inconclusive = weak or mixed curves; inactive = no such curve, though single readings can be large; an effect the other way counts as inactive or inconclusive.
Potency is read from the fitted curve at half-maximal effect; tags tell the direction and shape of the fitted curve.

Biological target: Estrogen receptor (Homo sapiens) (UniProt P03372)
Chain of UniProt P03372 (P03372 whole entry, looked up): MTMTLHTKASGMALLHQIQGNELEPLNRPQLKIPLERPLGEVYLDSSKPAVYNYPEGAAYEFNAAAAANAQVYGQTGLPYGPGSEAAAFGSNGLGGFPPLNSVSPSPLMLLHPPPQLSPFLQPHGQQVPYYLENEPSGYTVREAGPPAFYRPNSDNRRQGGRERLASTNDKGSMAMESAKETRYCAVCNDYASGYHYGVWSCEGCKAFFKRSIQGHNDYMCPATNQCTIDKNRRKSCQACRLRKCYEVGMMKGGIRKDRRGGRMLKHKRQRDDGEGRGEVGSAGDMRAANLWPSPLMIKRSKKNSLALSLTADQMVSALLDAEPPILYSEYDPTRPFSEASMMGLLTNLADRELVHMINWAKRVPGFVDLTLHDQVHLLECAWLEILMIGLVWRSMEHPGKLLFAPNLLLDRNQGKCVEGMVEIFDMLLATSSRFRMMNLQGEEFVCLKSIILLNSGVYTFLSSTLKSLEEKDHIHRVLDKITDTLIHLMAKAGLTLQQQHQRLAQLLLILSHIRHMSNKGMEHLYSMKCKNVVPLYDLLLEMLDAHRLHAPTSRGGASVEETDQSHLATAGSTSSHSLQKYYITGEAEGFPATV
Test: qHTS assay to identify small molecule antagonists of the estrogen receptor alpha (ER-alpha) signaling pathway using the BG1 cell line in the presence of 0.1 nM 17-beta-estradiol (AID 1259244); also: nearly all actives have a fitted effect of over 50% in size; as to activity change, negative = inhibition: % is scaled to controls: 0 for no effect and ±100 for the full control effect
Conditions: VM7Luc4E2 (BG1) ERE-luciferase, antagonist mode, 0.1 nM E2, 22 h; series mostly up to 92.4 µM; activity change, negative = inhibition: at the top concentration
Outline: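 After 5 days in hormone-depleted medium (charcoal-stripped serum, no phenol red), VM7Luc4E2 cells were seeded, incubated 24 h, then co-treated with compound and 0.1 nM (final) estradiol for 22 h before luminescence detection.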
For CC1=CCC(C(C)C)C=C1 (centres undefined), the “activity change, negative = inhibition” value was inactive: 4.67%.
For Nc1ccc(C(=O)Oc2ccccc2)c(O)c1, the “activity change, negative = inhibition” value was inactive: 52.6% [at 42.5 µM].
For CCCCCCCCCC#N, the Potency was inconclusive: 68.2 µM [inhibitor, single point].
For CCOc1cc(OCC)c(C(C)=O)cc1OCC, the “activity change, negative = inhibition” value was inactive: -12.3%.
With CC1(C)C(=O)NC(=O)N1CO the “activity change, negative = inhibition” value was inactive: 13.7%.
In the case of Cn1nnc2c(C(N)=O)ncn2c1=O, the “activity change, negative = inhibition” value is reported as inactive: -6.93% [at 42.5 µM].
For Cc1ncc([N+](=O)[O-])n1CC(C)O (centres undefined), the “activity change, negative = inhibition” value was inactive: -14.4% [at 42.5 µM].
In the case of CCN(CC)c1cccc(C)c1, the “activity change, negative = inhibition” value is reported as inactive: 0.65%.
For O=S(=O)(c1ccccc1)c1ccc(Cl)cc1, the Potency was inconclusive: 68.6 µM [inhibitor, single point].
In the case of COc1cc2ncnc(Nc3cccc(Cl)c3)c2cc1OC, the Potency is reported as inconclusive: 13 µM [inhibitor, partial curve].
With CC(C)O the Potency was inconclusive: 82.6 µM [inhibitor, single point].
For [O]=[Bi], the Potency was inconclusive: 3.74 µM [inhibitor, single point].
With O=C(O)CC(C(=O)O)C(CC(=O)O)C(=O)O (centres undefined) the Potency was “inactive”.
With CC[N+](C)(CC)CCOC(=O)C(O)(c1ccccc1)C1CCCCC1 (centres undefined) the “activity change, negative = inhibition” value was inactive: 15.3% [at 42.5 µM].
With CCCCC(=O)O the Potency was “inactive”.
With CC(C)C(=O)C(C)C the “activity change, negative = inhibition” value was inactive: -0.223%.

Test system: not listed separately
Test: qHTS assay to identify small molecule phospholipidosis (PLD) inducers (AID 1259344; active = well fitted curve in the direction sought with a large enough effect; inconclusive = small, poorly fitted or top-dose-only effect, or another doubt; inactive = no such curve, though single readings can be large; an effect the other way counts as inactive or inconclusive; as to PLD induction: % is scaled to controls: 0 for no effect and ±100 for the full control effect)
Conditions: HepG2 phospholipidosis, LipidTOX Red imaging, 24 h; PLD induction: at 38.3 µM (top of the series) unless noted
Outline: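 Fluorescent phospholipid staining (LipidTOX Red) measured by automated microscopy in fixed HepG2 cells after 24 h treatment; nuclei counterstained with Hoechst 33342; amiodarone as reference inducer.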
With CN1CCC[C@@H]1Cc1c[nH]c2ccc(CCS(=O)(=O)c3ccccc3)cc12 the Potency was inconclusive: 15.8 µM [activator, partial curve, poor fit].
For O=C(CCN1CCN2CCCC2C1)N1c2ccccc2Sc2ccc(Cl)cc21 (centres undefined), the Potency was inconclusive: 11.2 µM [activator, partial curve, poor fit].
With CC1CCc2cc(F)cc3c(=O)c(C(=O)O)cn1c23 (centres undefined) the “PLD induction” value was inactive: -0.397%.
In the case of C#Cc1cccc(Nc2ncnc3cc(OCCOC)c(OCCOC)cc23)c1, the Potency is reported as active: 10 µM.
For O=c1oc2c(O)c(O)cc3c(=O)oc4c(O)c(O)cc1c4c23, the “PLD induction” value was inactive: 0.185%.
For CN1CCN(C2=Nc3ccccc3Sc3ccc(Cl)cc32)CC1, the Potency was active: 11.2 µM.
With O=C1O[C@H]([C@@H](O)CO)C(O)=C1O the Potency was “inactive”.
For C[N+](C)(C)CCO, the Potency was inconclusive: 15.8 µM [activator, partial curve, poor fit].
With O=c1cc(CO)occ1O the Potency was “inactive”.
With C[C@@H](O)[C@H]1C(=O)N2C(C(=O)O)=C(SCCN=CN)C[C@H]12 the “PLD induction” value was inactive: -0.0963% [at 15.5 µM].
With NC(N)=NC(=O)Cc1c(Cl)cccc1Cl the “PLD induction” value was inactive: 1.81%.
In the case of CO[C@@H]1[C@@H](O[C@@H]2O[C@H](C)[C@@H](O[C@H]3C[C@@](C)(O)[C@@H](O)[C@H](C)O3)[C@H](N(C)C)[C@H]2O)[C@@H](CC=O)C[C@@H](C)[C@@H](O[C@@H]2CC[C@H](N(C)C)[C@@H](C)O2)/C=C/C=C/C[C@@H](C)OC(=O)C[C@H]1OC(C)=O, the Potency is reported as inconclusive: 4.47 µM [activator, single point].
In the case of CN1CCC(=C2c3ccccc3CCc3cccnc32)CC1, the Potency is reported as inconclusive: 14.1 µM [activator, single point].
With CCCCC(CC)CCC(CC(C)C)OS(=O)(=O)O (centres undefined) the Potency was inconclusive: 3.16 µM [activator, single point].
For Nc1ccc(S(=O)(=O)c2ccc(N)cc2)cc1, the “PLD induction” value was inactive: -0.367%.
With CC(N)C(=O)OC(C)(C)Cc1ccc(Cl)cc1 (centres undefined) the Potency was inconclusive: 14.1 µM [activator, partial curve, poor fit].
In the case of CC1CC(=O)NN=C1c1ccc(NCC(C)(C)NCC(O)COc2cc(Cl)ccc2C#N)cc1 (centres undefined), the Potency is reported as inconclusive: 28.2 µM [activator, single point].
With NC(N)=NC(=O)c1nc(Cl)c(N)nc1N the “PLD induction” value was inactive: 3.99%.
For CN(C)C(=O)CNC(=O)Cc1ccccc1, the “PLD induction” value was inactive: -1.56%.
With CC(C)(Sc1cc(C(C)(C)C)c(O)c(C(C)(C)C)c1)Sc1cc(C(C)(C)C)c(O)c(C(C)(C)C)c1 the Potency was inconclusive: 10 µM [activator, partial curve, poor fit].
For O=C(OCC1(COC(=O)c2cccnc2)CCCC(COC(=O)c2cccnc2)(COC(=O)c2cccnc2)C1O)c1cccnc1, the “PLD induction” value was inactive: -0.577%.

Test system: not listed separately
Test: qHTS assay to identify small molecule HDAC inhibitors (AID 1259364); also: nearly all actives have a fitted effect of over 45% in size; as to activity change, negative = inhibition: top concentration of the series differs between compounds; % is scaled to controls: 0 for no effect and ±100 for the full control effect
Conditions: HCT-116 HDAC-Glo I/II luminescence, 2 h; series mostly up to 92.4 µM; activity change, negative = inhibition: at the top concentration
Outline: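 Homogeneous cell-based luminescent assay of endogenous class I/II HDAC activity; HCT-116 cells, 2 h compound exposure, 30 min HDAC-Glo development at RT.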
For Nc1ccc(C(=O)Oc2ccccc2)c(O)c1, the Potency was inconclusive: 26.6 µM [inhibitor, partial curve].
In the case of O=C(O)c1ccccc1NCCc1ccccc1, the Potency is reported as inconclusive: 26.6 µM [inhibitor, partial curve, poor fit].
In the case of C1=C\CC/C=C\CC/1, the Potency is reported as inconclusive: 50.8 µM [inhibitor, partial curve].
For [O]=[Bi], the activity change, negative = inhibition was inactive: 9.82% [at 8.39 µM].
For NC(N)=NC(=O)c1nc(Cl)c(N)nc1N, the Potency was inconclusive: 54.8 µM [inhibitor, partial curve] and inconclusive: 40 µM [inhibitor, partial curve].

Test system: not listed separately
Test: qHTS assay to identify small molecule agonists of the sonic hedgehog signaling (Shh) pathway - cell viability counter screen (AID 1259366); also: nearly all actives have a fitted effect of over 50% in size
Conditions: NIH/3T3 Gli1-Luc viability, CellTiter-Fluor, 24 h; series mostly up to 92.4 µM; viability change, negative = cytotoxic: at the top concentration
Outline: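 Cytotoxicity counter screen: CellTiter-Fluor reagent added after 23 h compound exposure, then 1 h at 37C and fluorescence read. Cells were 3T3 Gli1-Luc, seeded 2,000 per well and dosed 4 h post-plating.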
With CCCCCCCCCC#N the Potency was inconclusive: 68.2 µM [cytotoxic, single point].
With CCOc1cc(OCC)c(C(C)=O)cc1OCC the Potency was active: 10.7 µM.
With O=C(CCN1CCN2CCCC2C1)N1c2ccccc2Sc2ccc(Cl)cc21 (centres undefined) the Potency was inconclusive: 11.6 µM [cytotoxic, partial curve].
In the case of COc1cc2ncnc(Nc3cccc(Cl)c3)c2cc1OC, the Potency is reported as inconclusive: 13 µM [cytotoxic, partial curve].
With NC(N)=NC(=O)Cc1c(Cl)cccc1Cl the Potency was inconclusive: 29.8 µM [cytotoxic, partial curve, poor fit].
In the case of CN1CCC(=C2c3ccccc3CCc3cccnc32)CC1, the Potency is reported as inconclusive: 26.6 µM [cytotoxic, partial curve].
With O=C(OCC1(COC(=O)c2cccnc2)CCCC(COC(=O)c2cccnc2)(COC(=O)c2cccnc2)C1O)c1cccnc1 the Potency was inconclusive: 11.9 µM [cytotoxic, partial curve, poor fit].
